This is one part of the list.

This test addresses T1, MBP-FoxP1dN (Mus musculus, UniProt P58462 326-579).
T1 sequence: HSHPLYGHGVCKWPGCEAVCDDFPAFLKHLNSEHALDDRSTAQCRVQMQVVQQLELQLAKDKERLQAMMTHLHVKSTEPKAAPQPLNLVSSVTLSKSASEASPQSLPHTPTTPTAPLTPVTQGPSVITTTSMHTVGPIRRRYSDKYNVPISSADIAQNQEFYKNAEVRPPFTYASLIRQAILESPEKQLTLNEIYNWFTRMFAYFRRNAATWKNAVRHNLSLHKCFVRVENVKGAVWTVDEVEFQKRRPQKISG
The test can be described thus: PD-seq (MBP pull-down with sequencing); 20 mM Tris-HCl pH 7.5, 100 mM NaCl, 1.5 mM MgCl2, 0.4 uM protein, 0.1 uM dsDNA library, 30 min, room temperature, amylose pull-down; high values mean tight binding. The conditions noted are these: protein: recombinant; tags: His6-MBP; chain copies: 2; dsDNA, one strand shown. In a few lines: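 Amylose resin was used to capture complexes formed during 30 min at room temperature in Tris pH 7.5 buffer with NaCl and MgCl2 between 0.4 µM His6-MBP-tagged mouse FoxP3 or FoxP1 fragment lacking the N-terminus, expressed in E. coli, and 0.1 µM Klenow-filled double-stranded degenerate DNA library. After three washes, the DNA was released with proteinase K, barcoded by PCR and sequenced on Illumina. Binding is pooled-replicate reads-per-million enrichment, pull-down over input.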
With “GATGATTGTTCTCCCAGCTGATGAATTGTCTATGTCGAGTAAACAAATTTTCCTAATCTTTCTGTTCAAGCGCCATCTAC”, the binding signal is 1.1 RPM ratio (pull-down/input).
Next, “GATGATTGTTCTCCCAGCTGATGAATTGCTACCATCGAGTAAACAAATTTTCCTAATCTTTCTGTTCAAGCGCCATCTAC”: 1.14 RPM ratio (pull-down/input); “GATGATTGTTCTCCCAGCTGATGAATTCACAACCTCGAGTAAACAAATTTTCCTAATCTTTCTGTTCAAGCGCCATCTAC”: 0.972 RPM ratio (pull-down/input).
Regarding “GATGATTGTTCTCCCAGCTGATGAATTCGATCTGTCGAGTAAACAAATTTTCCTAATCTTTCTGTTCAAGCGCCATCTAC”, the binding signal is 0.74 RPM ratio (pull-down/input).
On to “GATGATTGTTCTCCCAGCTGATGAATTTGCAACTTCGAGTAAACAAATTTTCCTAATCTTTCTGTTCAAGCGCCATCTAC”, for which the binding signal is 1.5 RPM ratio (pull-down/input).
Regarding “GATGATTGTTCTCCCAGCTGATGAATTCGGGCTGTCGAGTAAACAAATTTTCCTAATCTTTCTGTTCAAGCGCCATCTAC”, the binding signal was 0.742 RPM ratio (pull-down/input).
In the case of “GATGATTGTTCTCCCAGCTGATGAATTCTCAGGGTCGAGTAAACAAATTTTCCTAATCTTTCTGTTCAAGCGCCATCTAC”, the binding signal is 0.745 RPM ratio (pull-down/input).
For “GATGATTGTTCTCCCAGCTGATGAATTGGGTAAGTCGAGTAAACAAATTTTCCTAATCTTTCTGTTCAAGCGCCATCTAC” the value was 0.902 RPM ratio (pull-down/input); for “GATGATTGTTCTCCCAGCTGATGAATTTCATAGGTCGAGTAAACAAATTTTCCTAATCTTTCTGTTCAAGCGCCATCTAC”, 0.758 RPM ratio (pull-down/input); for “GATGATTGTTCTCCCAGCTGATGAATTTTAACTATCGAGTAAACAAATTTTCCTAATCTTTCTGTTCAAGCGCCATCTAC”, 1.01 RPM ratio (pull-down/input).
Turning to “GATGATTGTTCTCCCAGCTGATGAATTCGAGAATTCGAGTAAACAAATTTTCCTAATCTTTCTGTTCAAGCGCCATCTAC”, the binding signal was 0.871 RPM ratio (pull-down/input).
With “GATGATTGTTCTCCCAGCTGATGAATTAGTTATGTCGAGTAAACAAATTTTCCTAATCTTTCTGTTCAAGCGCCATCTAC”, the binding signal is 1.02 RPM ratio (pull-down/input).
Turning to “GATGATTGTTCTCCCAGCTGATGAATTACTCAGGTCGAGTAAACAAATTTTCCTAATCTTTCTGTTCAAGCGCCATCTAC”, the binding signal was 0.891 RPM ratio (pull-down/input).
In the case of “GATGATTGTTCTCCCAGCTGATGAATTTTAATCCTCGAGTAAACAAATTTTCCTAATCTTTCTGTTCAAGCGCCATCTAC”, the binding signal was 0.832 RPM ratio (pull-down/input).
Take “GATGATTGTTCTCCCAGCTGATGAATTGCTTATCTCGAGTAAACAAATTTTCCTAATCTTTCTGTTCAAGCGCCATCTAC”: the binding signal was 1.5 RPM ratio (pull-down/input).
For the sequence “GATGATTGTTCTCCCAGCTGATGAATTCACTCATTCGAGTAAACAAATTTTCCTAATCTTTCTGTTCAAGCGCCATCTAC”, the binding signal was 0.903 RPM ratio (pull-down/input).
For “GATGATTGTTCTCCCAGCTGATGAATTCAACGTCTCGAGTAAACAAATTTTCCTAATCTTTCTGTTCAAGCGCCATCTAC” the value was 0.934 RPM ratio (pull-down/input).
In the case of “GATGATTGTTCTCCCAGCTGATGAATTACGGGTCTCGAGTAAACAAATTTTCCTAATCTTTCTGTTCAAGCGCCATCTAC”, the binding signal is 0.889 RPM ratio (pull-down/input).
For the sequence “GATGATTGTTCTCCCAGCTGATGAATTGAATACATCGAGTAAACAAATTTTCCTAATCTTTCTGTTCAAGCGCCATCTAC”, the binding signal was 1.14 RPM ratio (pull-down/input).
For “GATGATTGTTCTCCCAGCTGATGAATTATTGTCATCGAGTAAACAAATTTTCCTAATCTTTCTGTTCAAGCGCCATCTAC”, the binding signal was 1.86 RPM ratio (pull-down/input).
In the case of “GATGATTGTTCTCCCAGCTGATGAATTTAAGCCATCGAGTAAACAAATTTTCCTAATCTTTCTGTTCAAGCGCCATCTAC”, the binding signal is 0.944 RPM ratio (pull-down/input).
With “GATGATTGTTCTCCCAGCTGATGAATTAATTACATCGAGTAAACAAATTTTCCTAATCTTTCTGTTCAAGCGCCATCTAC”, the binding signal is 1.26 RPM ratio (pull-down/input).
As for “GATGATTGTTCTCCCAGCTGATGAATTAAAGTTATCGAGTAAACAAATTTTCCTAATCTTTCTGTTCAAGCGCCATCTAC”, the binding signal was 1.13 RPM ratio (pull-down/input).
As to “GATGATTGTTCTCCCAGCTGATGAATTGACTCAATCGAGTAAACAAATTTTCCTAATCTTTCTGTTCAAGCGCCATCTAC”, the binding signal is 1.11 RPM ratio (pull-down/input).
With “GATGATTGTTCTCCCAGCTGATGAATTAATCATTTCGAGTAAACAAATTTTCCTAATCTTTCTGTTCAAGCGCCATCTAC”, the binding signal was 0.991 RPM ratio (pull-down/input).
Consider “GATGATTGTTCTCCCAGCTGATGAATTCACCAAGTCGAGTAAACAAATTTTCCTAATCTTTCTGTTCAAGCGCCATCTAC”, for which the binding signal is 0.776 RPM ratio (pull-down/input).
Regarding “GATGATTGTTCTCCCAGCTGATGAATTTACTGCTTCGAGTAAACAAATTTTCCTAATCTTTCTGTTCAAGCGCCATCTAC”, the binding signal is 1.15 RPM ratio (pull-down/input).
Next, “GATGATTGTTCTCCCAGCTGATGAATTTCGAATTTCGAGTAAACAAATTTTCCTAATCTTTCTGTTCAAGCGCCATCTAC”: 0.897 RPM ratio (pull-down/input).
For “GATGATTGTTCTCCCAGCTGATGAATTAGGCCACTCGAGTAAACAAATTTTCCTAATCTTTCTGTTCAAGCGCCATCTAC” the value was 0.876 RPM ratio (pull-down/input); for “GATGATTGTTCTCCCAGCTGATGAATTTGCTTTTTCGAGTAAACAAATTTTCCTAATCTTTCTGTTCAAGCGCCATCTAC”, 1.21 RPM ratio (pull-down/input).
Take “GATGATTGTTCTCCCAGCTGATGAATTACCCTGCTCGAGTAAACAAATTTTCCTAATCTTTCTGTTCAAGCGCCATCTAC”: the binding signal was 0.856 RPM ratio (pull-down/input).
Take “GATGATTGTTCTCCCAGCTGATGAATTGCGGATGTCGAGTAAACAAATTTTCCTAATCTTTCTGTTCAAGCGCCATCTAC”: the binding signal was 1.11 RPM ratio (pull-down/input).

Values taken from publication PMC12820563, “FoxP3 forms a head-to-head dimer in vivo and stabilizes its multimerization on adjacent microsatellites”.
